Source: PubChem BioAssay AID1468 (National Center for Advancing Translational Sciences (NCATS), 2008)
Among all 280,000 compounds or so, about 1,100 (0.39%) were called active. The shares of active, inactive and inconclusive entries below differ from those in the screen. Calls come from the whole dose curve; as a rule, active = well fitted inhibition curve with a large enough effect; inconclusive = small, poorly fitted or top-dose-only effect, or effect the other way; inactive = flat fitted curve, though single readings scatter. Potencies of inconclusive entries are doubtful fits and often do not repeat.

biological target: Microtubule-associated protein tau (Homo sapiens) (UniProt P10636); experiment: qHTS for Inhibitors of Tau Fibril Formation, Fluorescence Polarization; conditions: K18 P301L tau heparin fibrillization, Alexa594 FP, 6 h; series mostly up to 57.7 µM; activity, negative = inhibition: at the top concentration; note: nearly all actives have a fitted effect of over 55% in size
Summary of the method: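 Quantitative HTS format: compounds meet 15 uM recombinant K18 P301L tau and Alexa 594-tau tracer in 100 mM sodium acetate pH 7; 20 uM heparin triggers fibrillization at 37 C over 6 hr; FP gives the signal.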
% is set by controls: 0 for no effect and ±100 for the full control effect; potency is the fitted concentration of half-maximal effect; tags give direction and shape of the fitted curve.

Sequence of UniProt P10636 (P10636 whole entry, looked up): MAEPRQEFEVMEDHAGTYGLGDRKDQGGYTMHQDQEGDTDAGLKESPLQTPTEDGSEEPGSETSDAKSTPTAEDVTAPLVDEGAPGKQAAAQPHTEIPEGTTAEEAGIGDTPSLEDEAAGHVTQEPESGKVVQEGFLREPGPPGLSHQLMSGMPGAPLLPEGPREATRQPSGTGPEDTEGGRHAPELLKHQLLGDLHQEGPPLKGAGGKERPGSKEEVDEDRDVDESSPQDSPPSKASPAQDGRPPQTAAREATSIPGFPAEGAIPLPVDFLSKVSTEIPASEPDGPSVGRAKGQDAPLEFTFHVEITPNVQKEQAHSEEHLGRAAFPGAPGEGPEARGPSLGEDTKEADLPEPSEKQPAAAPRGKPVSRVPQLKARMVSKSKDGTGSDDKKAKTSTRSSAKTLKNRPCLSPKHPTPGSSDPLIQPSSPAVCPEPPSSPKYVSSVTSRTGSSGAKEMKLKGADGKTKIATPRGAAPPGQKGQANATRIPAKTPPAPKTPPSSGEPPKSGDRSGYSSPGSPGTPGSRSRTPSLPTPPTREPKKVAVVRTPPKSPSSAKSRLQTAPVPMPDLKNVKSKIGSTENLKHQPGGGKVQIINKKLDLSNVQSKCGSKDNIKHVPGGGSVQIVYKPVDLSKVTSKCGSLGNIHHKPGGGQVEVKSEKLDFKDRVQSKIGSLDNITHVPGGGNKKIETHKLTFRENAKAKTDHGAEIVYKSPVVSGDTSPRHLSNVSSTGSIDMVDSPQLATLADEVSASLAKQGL

Potency, inconclusive:
COc1cccc(/C=C(/CC(=O)Nc2ccc(N3CCOCC3)cc2)c2nc3ccccc3s2)c1 7.94 µM [activator, partial curve]
Cc1ccc(-n2ncc3c(NCc4ccccc4)ncnc32)cc1C 5.62 µM [inhibitor, partial curve]
COc1ccc(/C=C/C(=O)N2CCN(C)CC2)cc1S(=O)(=O)N1CCCCC1 0.178 µM [inhibitor, partial curve, poor fit]
COc1ccc(C(=O)c2ccc(N3CCN(C(=O)c4ccc(F)cc4)CC3)c(F)c2)cc1Br 44.7 µM [inhibitor, single point]
Fc1ccc2nc(Nc3nc4c(F)cccc4s3)sc2c1 0.0224 µM [inhibitor, full curve, poor fit]
COc1ccc(Sc2ccc(NC(=O)c3ccccc3Cl)cc2C#N)cc1 20 µM [inhibitor, partial curve]
COc1ccc(/C=C2\SC(=O)N(CC(=O)NNC(=O)c3ccccc3O)C2=O)cc1 39.8 µM [inhibitor, single point]
COc1ccc(C)cc1NCC(=O)Nc1ccc(C(C)(C)C)cc1 15.8 µM [activator, partial curve, poor fit]
CCNc1nc(N)c(C(=O)C23CC4CC(CC(C4)C2)C3)s1 3.98 µM [activator, partial curve, poor fit]
C=CCn1c(C)c(C(C)=O)c(N2CCN(c3ccccc3)CC2)nc1=S 1.58 µM [inhibitor, full curve, poor fit]
CCOC(=O)c1c(C)[nH]c(N=Nc2ccc(OC)cc2)c1C 1.78 µM [activator, full curve, poor fit]
Cc1cc(C)c(C#N)c(SCc2cc3c(cc2Cl)OCO3)n1 31.6 µM [inhibitor, single point]
COc1ccc(CNC(=O)CN(C)S(=O)(=O)c2ccc3[nH]c4c(c3c2)CCCC4)cc1 25.1 µM [activator, single point]
Cn1cc(-c2cc3n(n2)CCC(=O)N3CCCC(=O)NCc2ccccc2)c2ccccc21 44.7 µM [inhibitor, single point]
CC1CC(=O)c2c(cc3c(-c4c(O)cc(O)c5c(O)c6c(cc45)OC(C)CC6=O)c(O)cc(O)c3c2O)O1 (centres undefined) 22.4 µM [inhibitor, single point]
CC(C)OCCCNC(=O)c1ccc2c(=O)n(Cc3ccc4c(c3)OCO4)c(=S)[nH]c2c1 35.5 µM [inhibitor, single point]
O=C(Cc1cccs1)N1CCN(c2nc(-c3ccc(Cl)cc3)cs2)CC1 10 µM [activator, partial curve, poor fit]
CCOc1ccc(C(=O)Nc2ccc(Cl)c(-c3nc4cc(C)cc(C)c4o3)c2)cc1 12.6 µM [inhibitor, partial curve]
Nc1nn2cc(-c3ccc(Br)cc3)nc2c2ccccc12 35.5 µM [inhibitor, partial curve]
CCOc1ccccc1C(=O)Nc1cc2c(cc1C)n(C)c(=O)c(=O)n2C 39.8 µM [inhibitor, single point]
COC(=O)c1c(-c2cccnc2)csc1NC(=O)c1cc(C)on1 22.4 µM [inhibitor, partial curve, poor fit]
O=C(OCC#CCSc1nnc(-c2ccc([N+](=O)[O-])cc2)o1)c1cccs1 31.6 µM [activator, single point]
COc1ccc(C2=Nc3ccccc3N(CC(=O)Nc3cccc(C(C)=O)c3)C(=O)C2)cc1 15.8 µM [inhibitor, partial curve]
CCC(C)c1ccccc1NC(=O)COC(=O)c1ccc2[nH]c3c(c2c1)CCCC3 (centres undefined) 2.51 µM [activator, full curve, poor fit]
O=C1Nc2c(c(=O)[nH]c(=O)n2-c2ccc(F)cc2)C1(NS(=O)(=O)c1ccc(Cl)cc1)C(F)(F)F (centres undefined) 1.12 µM [inhibitor, full curve, poor fit]
COCCn1nnnc1CN(CCCN1CCOCC1)Cc1cc2c(C)ccc(C)c2[nH]c1=O 39.8 µM [inhibitor, single point]
CC1=CC(=C(C#N)C#N)C=C(C)N1CCN1CCN(C(=O)Nc2ccc(Cl)c(Cl)c2)CC1 35.5 µM [inhibitor, partial curve]
CCOC(=O)c1sc(NC(=O)Nc2ccc(Cl)cc2)cc1C 39.8 µM [inhibitor, single point]
CN(C)c1ccc(N=Nc2ccccc2C(=O)OCC(=O)Nc2ccccc2C(F)(F)F)cc1 0.355 µM [activator, full curve, poor fit]
Cc1ccc(OCC(=O)Nc2ccc(C(=O)OCc3cc(=O)n4ccsc4n3)cc2)cc1C 20 µM [inhibitor, partial curve, poor fit]
O=C(COC(=O)c1ccc(NS(=O)(=O)c2cccs2)cc1O)Nc1nc2ccccc2s1 14.1 µM [inhibitor, partial curve]
O=C(O)Cc1cccc(OCCCN(Cc2cccc(C(F)(F)F)c2Cl)CC(c2ccccc2)c2ccccc2)c1 22.4 µM [inhibitor, single point]
COc1ccc2c(c1)c(=O)c(C(=O)c1ccc(C)cc1)cn2CC(=O)Nc1ccc(F)cc1 14.1 µM [inhibitor, partial curve]
Cc1ccc(OC(F)F)c(NC(=O)Nc2cccc(C(F)(F)F)c2)c1 28.2 µM [inhibitor, single point]
Cc1cc(C)cc(OC(C)C(=O)Nc2nc3c(s2)CCCC3)c1 (centres undefined) 39.8 µM [inhibitor, single point]
CCCc1nc2ccc(NC(=O)NCCC(=O)OCC)cc2c(=O)n1Cc1ccc(Cl)cc1 22.4 µM [inhibitor, partial curve, poor fit]
COC(=O)C1=C(C)N(C(C)c2ccccc2)C(=O)C1 (centres undefined) 7.08 µM [inhibitor, single point]
CC1CCN(C(=O)CN2C(=O)c3cccc4cccc(c34)C2=O)CC1 8.91 µM [inhibitor, single point]
COc1cc(NC(=O)Cn2cc(S(=O)(=O)N3CCC(C)CC3)c3ccccc3c2=O)cc(OC)c1OC 44.7 µM [inhibitor, single point]
COc1ccc(Nc2cc(C(=O)NCCCN(C)C3CCCCC3)c3ccccc3n2)cc1 0.355 µM [activator, full curve, poor fit]
COc1ccc(-c2cc(-c3ccc(F)cc3)nc3c2COc2ccccc2-3)cc1 17.8 µM [inhibitor, partial curve]
COc1ccc(CCCc2nnc(SCC(=O)Nc3ccc(Cl)cc3)o2)cc1 5.62 µM [inhibitor, full curve]
O=C(Cn1cnc2c(oc3ccccc32)c1=O)N1CCCC1 3.98 µM [inhibitor, single point]
Cc1ccc(-c2nc(NCc3cccnc3)c3ccccc3n2)cc1 39.8 µM [inhibitor, single point]
COc1ccc(CCNC(=O)c2cc3c(=O)[nH]c4ccc(C)cc4c3s2)cc1OC 10 µM [inhibitor, partial curve]
Cc1cc(C)n(-c2ccc(C(=O)OCC(=O)Nc3ccc([N+](=O)[O-])cc3)cc2)n1 20 µM [inhibitor, partial curve]
CC(=O)c1cccc(NC(=O)c2cc(-c3ccc4c(c3)OCCO4)on2)c1 44.7 µM [inhibitor, single point]

activity, negative = inhibition, inactive:
CCS(=O)(=O)Nc1ccc(Cc2ccncc2)cc1 0.524%
Cc1c(NC(=S)N/N=C/c2ccc(N(C)C)cc2)c(=O)n(-c2ccccc2)n1C -4.61%
S=C1NC2=C(CCC/C2=C\c2ccc(Cl)cc2)C(c2ccc(Cl)cc2)N1 (centres undefined) 0.138%
COc1ccc(NC(=O)c2cc(S(=O)(=O)N3CCCC3)oc2C)cc1 -4.95%
CCc1ccc2occ(CC(=O)NCc3ccccc3)c2c1 1.7%
CCCCC(=O)Nc1sc2c(c1C(N)=O)CCC2 2.67%
c1cncc(CNC2CCCc3ccccc32)c1 (centres undefined) 6.91%
CCCC(=O)Nc1ccc(S(=O)(=O)N2CCCC2)cc1 2.46%
CN(C)c1ccc(CNC(=O)C2CCN(C(=O)c3ccc(-n4ccc5ccccc54)s3)CC2)cc1 13.3%
N#C/C(=C\c1ccc(O)c(O)c1)C(=O)NCCc1ccccc1 11.6%
COc1ccc(CCNC(=O)Cn2nc(-c3ccc(Cl)cc3)ccc2=O)cc1OC -5.53%
Oc1ccc(C2=Nn3c(nnc3-c3ccco3)SC2)cc1O -4.5%
Cc1ccc2c(c1)C(=O)c1c(C(=O)O)cccc1-2 0.184%
CC(C)NC(=O)CCS(=O)(=O)c1cccc2nonc12 -4.44%
CN(CC(=O)NCc1cccc(F)c1)C(=O)c1ccco1 3.02%
Cc1cccc(C(=O)Nc2nnc(S(=O)(=O)N3c4ccccc4CC3C)s2)c1 (centres undefined) -0.0051%
Cc1cc(C)nc(SC(C(=O)O)c2ccccc2)n1 (centres undefined) -2.07%
